# Measurements published in the supplement of paper PMC8047034.
# Counter-ions that a name gives are not always drawn. This is one part of the list. Repeats are few or missing, and single values can be far off.
# Columns and labels:
# OVCAR4 = test: log2 surviving fraction (library drug vs vehicle, or drug + carboplatin vs carboplatin alone; relative to plate median); ovarian cancer lines: OVCAR4 is platinum-sensitive and Ov4Carbo platinum-resistant; higher = more cell survival; conditions: library drug concentration 10 µM, 7 days
# Ov4Carbo = test: as above; conditions: library drug concentration 10 µM, 7 days
SMILES,log2 surviving fraction (OVCAR4; carboplatin co-treatment 0 µM),log2 surviving fraction (OVCAR4; carboplatin co-treatment 5 µM),log2 surviving fraction (Ov4Carbo; carboplatin co-treatment 0 µM),log2 surviving fraction (Ov4Carbo; carboplatin co-treatment 5 µM)
C#CCC(Cc1cnc2nc(N)nc(N)c2n1)c1ccc(C(=O)N[C@@H](CCC(=O)O)C(=O)O)cc1 (some centres not stated) [Pralatrexate (Folotyn)],-1.93,-2.72,-3.69,-2.71
COC(c1ccccc1)(c1ccccc1)[C@H](Oc1nc(C)cc(C)n1)C(=O)O [Ambrisentan],-0.633,0.0446,0.389,0.625
CCCCc1oc2ccccc2c1C(=O)c1cc(I)c(OCCN(CC)CC)c(I)c1 [Amiodarone HCl],-1.21,0.108,-1.31,-2.46
CC(=O)OCC(=O)[C@@]1(O)CC[C@H]2[C@@H]3CCC4=CC(=O)C=C[C@]4(C)[C@H]3[C@@H](O)C[C@@]21C [Prednisolone acetate (Omnipred)],0.69,0.272,2.15,1.21
C=C1CC[C@H](O)C/C1=C/C=C1\CCC[C@]2(C)[C@@H]([C@H](C)CCCC(C)(C)O)CC[C@@H]12 [Calcifediol],-2.62,-2.14,-1.59,-1.18
CC[C@@H](C(N)=O)N1CCCC1=O [Levetiracetam],1.14,-0.369,0.568,-0.176
Nc1nc(=O)[nH]cc1F [Flucytosine (Ancobon)],0.323,0.523,0.575,-0.0682
CC[C@H]1OC(=O)[C@H](C)[C@@H](O[C@H]2C[C@@](C)(OC)[C@@H](O)[C@H](C)O2)[C@H](C)[C@@H](O[C@@H]2O[C@H](C)C[C@H](N(C)C)[C@H]2O)[C@](C)(O)C[C@@H](C)CN(C)[C@H](C)[C@@H](O)[C@]1(C)O [Azithromycin (Zithromax)],-0.277,0.107,-0.151,-0.635
